First the molecules themselves.
B1: TEV protease; numbered along this chain (parent)
chain: MGESLFKGPRDYNPISSSICHLTNESDGHTTSLYGIGFGPFIITNKHLFRRNNGTLVVQSLHGVFKVKDTTTLQQHLVDGRDMIIIRMPKDFPPFPQKLKFREPQREERICLVTTNFQTKSMSSMVSDTSCTFPSGDGIFWKHWIQTKDGQCGSPLVSTRDGFIVGIHSASNFTNTNNYFTSVPKNFMELLTNQEAQQWVSGWRLNADSVLWGGHKVFMVKPEEPFQPVKEATQL

This is one part of the list. The full chains were built here from the parent and the listed change. Values near 0.05 are background.
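Note: Bxb1 expression induced with 0.2% (w/v) L-rhamnose at OD600 near 0.5, cultures sampled hourly, flipped fraction per protease–substrate barcode pair counted by paired-end Illumina sequencing.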

The variants in the test derive from B1. The test is described as follows: raw area under fraction-flipped curve 0-4 h after induction (AUC4h, not background-subtracted), DNA-recorder readout of cleavage of the substrate (dimensionless); higher = more cleavage of the substrate by the protease variant. The following applies: temperature: 34 °C; time window: 0-4 h after rhamnose induction.
S135L: the “area with substrate ENLYNQS” value came to 0.0516, the “area with substrate ENLYRQS” value worked out at 0.0522, the “area with substrate ENLYVQS” value worked out at 0.0598 and the “area with substrate ENLYYQS” value was found to be 0.0519.

In the case of S209G, the “area with substrate ENLYLQS” value came out at 0.0982, the “area with substrate ENLYMQS” value is 0.0717, the “area with substrate ENLYNQS” value came to 0.0745 and the “area with substrate ENLYQQS” value came to 0.0502. Also, the “area with substrate ENLYRQS” value was 0.0468 and the “area with substrate ENLYWQS” value is 0.0693.

Turning to S209N, the “area with substrate ENLYHQS” value was 0.0653, the “area with substrate ENLYLQS” value was 0.0804, the “area with substrate ENLYNQS” value came out at 0.0452 and the “area with substrate ENLYPQS” value turned out to be 0.0675. For the same variant, the “area with substrate ENLYTQS” value amounted to 0.0779, the “area with substrate ENLYWQS” value stood at 0.0553 and the “area with substrate ENLYYQS” value stood at 0.0666.

Consider N172L, for which the “area with substrate ENLYQQS” value was 0.0641.

Consider N172M, for which the “area with substrate ENLYKQS” value was found to be 0.032.

Take N172W: the “area with substrate ENLYNQS” value came out at 0.0666.

In the case of R102N, the “area with substrate ENLYNQS” value was determined as 0.0643 and the “area with substrate ENLYSQS” value came to 0.033.

As to G35I, the “area with substrate ENLYVQS” value worked out at 0.0533.

Regarding S154N, the “area with substrate ENLYPQS” value is 0.0638.

L205S: the “area with substrate ENLYNQS” value came to 0.0501.

Consider L190N, for which the “area with substrate ENLYLQS” value came to 0.0426, the “area with substrate ENLYQQS” value is 0.0681 and the “area with substrate ENLYYQS” value is 0.0893.

A170F: the “area with substrate ENLYQQS” value is 0.0486 and the “area with substrate ENLYWQS” value came to 0.0705.

For K90M, the “area with substrate ENLYIQS” value is 0.127, the “area with substrate ENLYKQS” value came to 0.0655, the “area with substrate ENLYMQS” value came to 0.0738 and the “area with substrate ENLYYQS” value turned out to be 0.0601.

In the case of T181V, the “area with substrate ENLYMQS” value is 0.0669, the “area with substrate ENLYNQS” value stood at 0.0655, the “area with substrate ENLYPQS” value is 0.0545 and the “area with substrate ENLYQQS” value turned out to be 0.0736. Moreover, the “area with substrate ENLYSQS” value was 0.078, the “area with substrate ENLYTQS” value was 0.0593, the “area with substrate ENLYVQS” value was determined as 0.0813 and the “area with substrate ENLYWQS” value was 0.0443.

As to N186H, the “area with substrate ENLYKQS” value came to 0.0665, the “area with substrate ENLYVQS” value was determined as 0.15 and the “area with substrate ENLYYQS” value turned out to be 0.0703.

Turning to N186R, the “area with substrate ENLYMQS” value came out at 0.0909 and the “area with substrate ENLYYQS” value amounted to 0.0665.

Consider D91E, for which the “area with substrate ENLYNQS” value came out at 0.0741.

D91M: the “area with substrate ENLYMQS” value was found to be 0.156, the “area with substrate ENLYNQS” value worked out at 0.0652 and the “area with substrate ENLYTQS” value is 0.0753.

With P93W, the “area with substrate ENLYLQS” value turned out to be 0.0651, the “area with substrate ENLYQQS” value amounted to 0.0755 and the “area with substrate ENLYVQS” value is 0.073.

For F38E, the “area with substrate ENLYIQS” value turned out to be 0.0681 and the “area with substrate ENLYYQS” value is 0.0549.

Regarding L235F, the “area with substrate ENLYHQS” value stood at 0.0776, the “area with substrate ENLYKQS” value was determined as 0.041, the “area with substrate ENLYMQS” value amounted to 0.0812 and the “area with substrate ENLYNQS” value is 0.06. Further, the “area with substrate ENLYTQS” value is 0.0803, the “area with substrate ENLYVQS” value came out at 0.0807 and the “area with substrate ENLYWQS” value stood at 0.128.

For the variant T147S, the “area with substrate ENLYQQS” value came out at 0.0618 and the “area with substrate ENLYRQS” value came to 0.0535.

Take R87N: the “area with substrate ENLYNQS” value amounted to 0.0653.

Turning to S158E, the “area with substrate ENLYIQS” value came to 0.0865, the “area with substrate ENLYNQS” value was found to be 0.0271 and the “area with substrate ENLYQQS” value is 0.0474.

Regarding Q97Y, the “area with substrate ENLYKQS” value turned out to be 0.0436, the “area with substrate ENLYTQS” value was 0.0782 and the “area with substrate ENLYVQS” value worked out at 0.115.

Consider Q97G, for which the “area with substrate ENLYIQS” value stood at 0.131 and the “area with substrate ENLYQQS” value is 0.0316.

With Q97T, the “area with substrate ENLYTQS” value is 0.084 and the “area with substrate ENLYWQS” value was 0.0756.

As to Q97L, the “area with substrate ENLYKQS” value stood at 0.0495, the “area with substrate ENLYQQS” value was found to be 0.0579, the “area with substrate ENLYWQS” value came out at 0.0934 and the “area with substrate ENLYYQS” value was found to be 0.0641.

For the variant P94N, the “area with substrate ENLYIQS” value was found to be 0.0884, the “area with substrate ENLYLQS” value was found to be 0.0775, the “area with substrate ENLYSQS” value worked out at 0.0736 and the “area with substrate ENLYTQS” value was found to be 0.0878. In addition, the “area with substrate ENLYWQS” value amounted to 0.0838.

With I164V, the “area with substrate ENLYTQS” value is 0.0676.

As for E223A, the “area with substrate ENLYIQS” value was found to be 0.0931 and the “area with substrate ENLYVQS” value is 0.0791.

As to N177Q, the “area with substrate ENLYSQS” value stood at 0.086 and the “area with substrate ENLYTQS” value is 0.0965.

Regarding R81V, the “area with substrate ENLYNQS” value stood at 0.0661, the “area with substrate ENLYQQS” value amounted to 0.0645, the “area with substrate ENLYSQS” value amounted to 0.0777 and the “area with substrate ENLYWQS” value stood at 0.0765.

As for L211I, the “area with substrate ENLYHQS” value stood at 0.0769 and the “area with substrate ENLYIQS” value came to 0.126.

Regarding L99W, the “area with substrate ENLYKQS” value was 0.0535, the “area with substrate ENLYMQS” value turned out to be 0.0784, the “area with substrate ENLYQQS” value worked out at 0.0594 and the “area with substrate ENLYVQS” value is 0.0886. Further, the “area with substrate ENLYYQS” value was 0.0748.

Take F163S: the “area with substrate ENLYMQS” value was determined as 0.0792.

On to F163N, for which the “area with substrate ENLYIQS” value stood at 0.108, the “area with substrate ENLYSQS” value was found to be 0.0621, the “area with substrate ENLYVQS” value amounted to 0.0939 and the “area with substrate ENLYWQS” value came out at 0.0701.

In the case of H215S, the “area with substrate ENLYNQS” value amounted to 0.0493 and the “area with substrate ENLYPQS” value is 0.0583.

On to N206L, for which the “area with substrate ENLYIQS” value stood at 0.141.

As for F226V, the “area with substrate ENLYHQS” value was 0.0751 and the “area with substrate ENLYMQS” value came out at 0.0836.

Take G214W: the “area with substrate ENLYHQS” value amounted to 0.0632, the “area with substrate ENLYIQS” value is 0.0817, the “area with substrate ENLYMQS” value amounted to 0.0721 and the “area with substrate ENLYVQS” value stood at 0.0802. Moreover, the “area with substrate ENLYWQS” value was found to be 0.0509.

Consider N178R, for which the “area with substrate ENLYSQS” value is 0.0674.

As for G162V, the “area with substrate ENLYMQS” value came out at 0.0402, the “area with substrate ENLYPQS” value came to 0.0666, the “area with substrate ENLYRQS” value was 0.0562 and the “area with substrate ENLYVQS” value turned out to be 0.0857.

In the case of G213H, the “area with substrate ENLYHQS” value amounted to 0.0695, the “area with substrate ENLYIQS” value was 0.0791, the “area with substrate ENLYMQS” value is 0.0669 and the “area with substrate ENLYNQS” value came to 0.0454. Besides, the “area with substrate ENLYQQS” value was found to be 0.0543, the “area with substrate ENLYSQS” value turned out to be 0.0621 and the “area with substrate ENLYYQS” value was determined as 0.0553.

Turning to D137T, the “area with substrate ENLYKQS” value was determined as 0.0628, the “area with substrate ENLYLQS” value stood at 0.0807, the “area with substrate ENLYWQS” value was 0.0666 and the “area with substrate ENLYYQS” value was 0.0692.

(Values after the supplement of paper PMC12217912.)
